Among all 310,000 compounds or so, about 11,000 (3.5%) were called active. Inconclusive means that the source gave no clear call. Such entries were picked first, then a sample of the others. Calls come from the whole dose curve; as a rule, active = well fitted inhibition curve with a large enough effect; inconclusive = small, poorly fitted or top-dose-only effect, or effect the other way; inactive = flat fitted curve, though single readings scatter. No potency is given beside an inconclusive call; the fits are too rough.
Assay: VP16 counterscreen qHTS for inhibitors of ROR gamma transcriptional activity;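 note: Gal4-VP16 expression switched on by copper sulfate through the metallothionein promoter; nearly all actives have a fitted effect of over 50% in size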
Conditions: Drosophila S2 Gal4-VP16 UAS-luciferase, luminescence, 20 h; activity, negative = inhibition: at 53.6 µM (top of the series)
% is set by controls: 0 for no effect and ±100 for the full control effect; potency is the fitted concentration of half-maximal effect; tags give direction and shape of the fitted curve.

Compound | Potency | activity, negative = inhibition
Cc1ccc(NC(=S)Nc2ccc3cn[nH]c3c2)cc1C | active: 5.01 µM | –
Cn1c(=O)[nH]c(=O)c2c1nc([N+](=O)[O-])n2Cc1ccccc1 | active: 5.62 µM | –
CCCCc1cc(=O)oc2cc(OCC(=O)NC3CCN(Cc4ccccc4)CC3)ccc12 | – | inactive: -3.57%
COc1ccccc1OCC(=O)Nc1nonc1NC(=O)COc1ccccc1OC | – | inactive: -11.7%
Cc1cccnc1NCc1ccc(O)c2ncccc12 | active: 2.82 µM | –
CCOC(=O)C1(CCc2ccccc2)CCN(C(=O)Cc2nonc2C)CC1 | inconclusive [activator, single point] | –
O=C(NC(=S)Nc1ccccc1[N+](=O)[O-])c1cncc(Br)c1 | active: 5.62 µM | –
Cc1ccc(C)c(-n2c(Cc3cccs3)n[nH]c2=S)c1 | active: 3.16 µM | –
CC(C)CC(NC(=O)C(COCc1ccccc1)NC(=O)OC(C)(C)C)C(=O)NN (stereo not drawn) | – | inactive: -3.14%
Cc1ccc2[nH]c3c(=O)n(CC(=O)Nc4ccccc4N4CCN(C)CC4)ncc3c2c1 | – | inactive: -3.29%
O=C(N/N=C/c1c[nH]c2ccccc12)C1CC1c1ccccc1 (stereo not drawn) | inconclusive [inhibitor, single point] | –
Brc1ccc2ncnc(NCc3ccco3)c2c1 | inconclusive [inhibitor, single point] | –
O=C1C2=CC[C@@H]3C(=O)N(c4ccc(F)cc4F)C(=O)[C@H]3[C@H]2[C@H](O)[C@H]2O[C@H]12 | inconclusive [inhibitor, single point] | –
CN1CCN(c2ncc3nc(-c4cccc(C#N)c4)c(=O)n(Cc4ccc(F)cc4)c3n2)CC1 | active: 20 µM | –
O=C1CCN(C(=O)CSc2ccc(Cl)cc2)N1 | inconclusive [inhibitor, single point] | –
S=C1NC(c2ccccc2)=CC(c2ccccc2)N1 (stereo not drawn) | active: 11.2 µM | –
O=C(CSc1nc2ccccc2c(=O)n1Cc1ccco1)c1ccccc1 | inconclusive [inhibitor, single point] | –
O=C(Nc1ccc(-c2cn3ccccc3n2)cc1)c1cccs1 | inconclusive [inhibitor, single point] | –
COc1cccc2c(=O)c(C(=O)NCc3cccs3)c[nH]c12 | – | inactive: -4.86%
COc1ccc(NC(=S)NCc2ccc(F)cc2)cc1 | inconclusive [inhibitor, single point] | –
O=C1CCCN1CCC1CCN(C2CC(=O)N(Cc3ccc(N4CCCC4=O)cc3)C2=O)CC1 (stereo not drawn) | inconclusive [inhibitor, single point] | –
Cc1cc(=S)cc(C)n1CCCn1ccnc1 | – | inactive: -7.45%
COc1ccc(-c2n[nH]c(=S)n2-c2ccc(C)cc2C)cc1 | active: 5.01 µM | –
CCc1cc2c(SCC(=O)c3ccc(C)cc3)ncnc2s1 | – | inactive: 0.0536%
O=C(CSc1nnc(-c2ccccn2)o1)Nc1ccccc1F | inconclusive [activator, full curve, poor fit] | –
CCOc1ccc(C(=O)Nc2ccc3[nH]ncc3c2)cc1 | inconclusive [inhibitor, single point] | –

Compound | Potency | activity, negative = inhibition
CCOc1ccccc1NC(=O)C1=C(C)NC(=S)NC1c1cccs1 (stereo not drawn) | active: 20 µM | –
OC(COc1ccc2cc(Br)ccc2c1)CN1CCCC1 (stereo not drawn) | inconclusive [inhibitor, single point] | –
CC(=O)Oc1ccc(-c2csc(Nc3cccc(C)n3)n2)cc1 | active: 10 µM | –
c1ccc(-c2noc(-c3cccc4ccccc34)n2)cc1 | inconclusive [activator, full curve, poor fit] | –
CCC(C)c1ccc(NC(=O)c2cccnc2)cc1 (stereo not drawn) | inconclusive [inhibitor, single point] | –
Cc1ccc(NC(=O)c2ccc(OC(F)F)cc2)cc1S(=O)(=O)N(C)C | – | inactive: -2.39%
CCOc1ccc(-n2nc3ccc(NC(=O)c4ccc5c(c4)OCCO5)cc3n2)cc1 | active: 11.2 µM | –
CCOc1ccc(/C=N/NC(=O)CC(=O)Nc2ccc(Cl)c(Cl)c2)cc1 | inconclusive [inhibitor, single point] | –
O=C(Cc1ccccc1)NC(Nc1cccc2ccccc12)C(Cl)(Cl)Cl (stereo not drawn) | inconclusive [inhibitor, single point] | –
Cc1ccc(F)c(C2C3C=CCC(c4ccccc4)C3C(=O)N2Cc2ccccc2)c1 (stereo not drawn) | inconclusive [inhibitor, partial curve] | –
O=[N+]([O-])c1ccc(Nc2nc(N/N=C\c3ccc4c(c3)OCO4)nc(N3CCCCC3)n2)cc1 | inconclusive [inhibitor, single point] | –
Cc1[nH]c(=O)[nH]c(=O)c1/C=N/NC(=O)[C@@H](NC(=O)OC(C)(C)C)C(C)C | – | inactive: -5.65%
COc1ccc(-c2csc(N)n2)cc1 | – | inactive: -13.8%
COc1ccc(NC(=O)CSc2nnc(-c3cccs3)n2-c2ccccc2)cc1 | inconclusive [inhibitor, single point] | –
O=C(NNC(=S)Nc1ccc(Br)cc1)c1cccnc1 | inconclusive [inhibitor, single point] | –
O=C(O)c1ccc(N2CCCCS2(=O)=O)cc1 | – | inactive: 7.48%
O=C(N/N=C/c1cccs1)c1ccccn1 | inconclusive [inhibitor, single point] | –
CCOC(=O)c1c(N)sc(C(O)(C(F)(F)F)C(F)(F)F)c1-c1ccc(Cl)cc1 | inconclusive [inhibitor, single point] | –
C[C@H](NC(N)=O)C(=O)Nc1ccc2c(c1)OCO2 | – | inactive: 1.49%
OC(COc1ccc(CNCCc2ccc(C(F)(F)F)cc2)cc1)CN1CCCCC1 (stereo not drawn) | – | inactive: -15.9%
O=C(NC(=S)Nc1ccc(S(=O)(=O)N2CCCCC2)cc1)c1ccccc1 | inconclusive [inhibitor, single point] | –
Cc1ccc(NC(=O)CCn2cccc2)cc1F | inconclusive [activator, single point] | –
CCNC(=S)NNC(=O)CCn1c2ccccc2c2ccccc21 | inconclusive [inhibitor, partial curve] | –
O=C(CCCl)Nc1nc2c(s1)CCc1ccccc1-2 | – | inactive: -11%
CC(C)COC(=O)Nc1ccccc1C(=O)N1CCOCC1 | inconclusive [inhibitor, single point] | –
CCn1cc([N+](=O)[O-])c(C(=O)Nc2ccc3c(c2)OCCO3)n1 | – | inactive: -15.1%

Compound | Potency | activity, negative = inhibition
COc1ccc(Br)cc1CN1CCC(N2CCCC2)CC1 | – | inactive: -11.2%
COCCCNC(=S)N/N=C/c1ccc(OC)c(Br)c1 | active: 11.2 µM | –
C/C=C/c1ccc2oc(-c3ccc(O)cc3)c(C)c2c1 | inconclusive [inhibitor, single point] | –
CCN1c2ccccc2-c2nc3ccccc3n2C1c1cccs1 (stereo not drawn) | inconclusive [inhibitor, single point] | –
O=[N+]([O-])c1cc(S(=O)(=O)N2CCCCCC2)ccc1Cl | – | inactive: 3.39%
CCCn1c(SCC(=O)Nc2c(CC)cccc2CC)nnc1C(C)C | – | inactive: 8.57%
CC(C)OCCCNC1=C(Cl)C(=O)c2ccccc2C1=O | inconclusive [inhibitor, single point] | –
CC(=O)N1CCN(CC(=O)c2ccc(Br)cc2)CC1 | inconclusive [inhibitor, single point] | –
CN(C(=O)Nc1ccc(S(=O)(=O)N(C)C)cc1)C1CCCCC1 | – | inactive: -21.4%
N#Cc1ccc(/C=C/C(=O)c2ccccc2)cc1 | inconclusive [inhibitor, single point] | –
O=C1OC(NC(=O)c2ccccc2)C(n2cc(CO)nn2)=C1Cl (stereo not drawn) | inconclusive [inhibitor, single point] | –
O=C(CC(Nc1ccc(Cl)cc1)C(=O)O)c1ccccc1 (stereo not drawn) | active: 5.01 µM | –
COc1cccc(/C=N/NC(=O)Cn2nc(C)c([N+](=O)[O-])c2C)c1O | active: 0.794 µM | –
COc1cc(-c2cc(C(=O)NCCc3ccc(S(N)(=O)=O)cc3)c3ccccc3n2)cc(OC)c1OC | – | inactive: -3.55%
O=C(O)c1ccc(Nc2nc3c(s2)CCCC3)cc1 | active: 3.55 µM | –
CCSC1=NC(C)(C)C=C(/C=C/c2ccc(Cl)cc2Cl)N1 | inconclusive [inhibitor, single point] | –
COc1ccccc1Nc1c2ccccc2nc2ccccc12 | inconclusive [inhibitor, single point] | –
Cc1cc(C)n(CC(=O)N2CCCC(C(=O)c3cccc(OC(C)C)c3)C2)n1 (stereo not drawn) | inconclusive [activator, single point] | –
CC(C)(C)OC(=O)NCc1ccc(NC(=O)c2nc[nH]c2C(=O)N[C@@H](Cc2ccccc2)C(=O)OC(C)(C)C)cc1 | active: 11.2 µM | –
COc1ccc(NC(=O)CN(C)C(=O)C(C)Sc2ccccc2)cc1 (stereo not drawn) | inconclusive [activator, full curve, poor fit] | –
COCCCNC(=S)NNC(=O)c1cc(C2CC2)nc2ccccc12 | inconclusive [inhibitor, partial curve] | –
COc1ccccc1NC(=O)CSc1nc2ccccc2c(=O)n1C | inconclusive [inhibitor, single point] | –
CC(NC(=O)Cn1nc(-c2ccccc2)ccc1=O)c1ccccc1 (stereo not drawn) | – | inactive: 4.01%
N#C/C(=C(/O)c1ccco1)c1nc2ccccc2[nH]1 | inconclusive [inhibitor, partial curve] | –
FC(F)(F)c1nc(N2CCCC2)ncc1-c1nnnn1-c1ccc(Cl)cc1 | active: 15.8 µM | –
CCN1C(=O)/C(=C\C(=O)c2cccs2)c2cc(Br)ccc21 | inconclusive [inhibitor, single point] | –

Reference: PubChem BioAssay AID2546 (National Center for Advancing Translational Sciences (NCATS), 2010)
